# Assay results taken from the supplement of paper PMC4723716.
# Where “and” joins values, the source holds several entries; their conditions need not be identical. Equal values may be shown once. ± gives the uncertainty stated by the source. In all, about 9,900 compounds were measured (“viability index relative to DMSO control”: median about 1, lowest 2% from about 0.85 on). The list shows a part of the results.
# Tested on: Plasmodium falciparum NF54 stage V gametocytes
# Test: viability index relative to DMSO control (fraction); higher = less gametocyte killing
# Conditions: 2.5 µM, library set: Broad Institute DOS, incubation time: 72 h
# How it was run: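 P. falciparum NF54 stage V gametocytes in serum-free screening medium (0.75% gametocytemia, 1.25% hematocrit, 10 µl) were incubated with compound at 2.5 µM in 1,536-well plates for 72 hr at 37°C under low oxygen. Then 3 µl of 2.5 µM MitoTracker Red CMXRos plus 0.13% saponin was added for one to two hours. One field per well was imaged, 20–70 µm2 red particles were counted, and the viability index was the count divided by the plate mean of DMSO wells.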
row,SMILES,viability index
1,C/C=C/c1cnc2c(c1)C(=O)N([C@@H](C)CO)C[C@H](C)[C@@H](CN(C)CC1CCOCC1)O2,1.02 ± 0.037
2,C/C=C/c1ccc([C@@H]2[C@@H](CO)N(CCC(F)(F)F)C23CN(C(=O)CC2CC2)C3)cc1,0.951 ± 0.035
3,CN(C)CC(=O)N1CC2(C1)[C@H](c1ccccc1)[C@H](CO)N2S(C)(=O)=O,1.11 ± 0.033
4,CN1C(=O)c2cc(NS(=O)(=O)c3cccc(F)c3)ccc2OC[C@@H]2O[C@H](CC(=O)NCCN3CCCCC3)CC[C@H]21,0.941 ± 0.053
5,COc1ccccc1-c1cnc2c(c1)C(=O)N([C@H](C)CO)C[C@@H](C)[C@H](CN(C)C(=O)CC1CC1)O2,1.01 ± 0.03
6,COc1ccccc1-c1ccc([C@@H]2[C@H](C#N)N[C@H]2CO)cc1,1.1 ± 0.046
7,O=C(C[C@@H]1CC[C@H](NC(=O)CC2CC2)[C@H](CO)O1)NCC(F)(F)F,1.08 ± 0.051
8,COc1ccc2c3c([C@H](CO)NC[C@]33CN(Cc4ccc(cc4)-c4ccccn4)C3)n(C)c2c1,0.934 ± 0.11
9,CN(C)CC(=O)N1CC2(C1)[C@@H](c1ccccc1)[C@@H](CO)N2C(=O)C1CC1,0.96839 ± 0.00043
10,O=C(C[C@@H]1CC[C@@H]2[C@H](COC[C@@H](O)CN2CC2CCOCC2)O1)NCC1CCCCC1,0.974 ± 0.14
11,O=C(C[C@H]1CC[C@H]2[C@@H](COC[C@H](O)CN2C(=O)Nc2cccc(F)c2)O1)NCCCN1CCOCC1,1.0467 ± 0.00062
12,O=C1N[C@@H](c2ccccc2)COCc2cn(nn2)CC[C@@H]1Cc1ccc(C(F)(F)F)cc1,0.9942 ± 0.0042
13,CC(C)[C@@H]1C(=O)N[C@@H](c2ccc(F)cc2)C/C=C/C[C@@H](C)Oc2ccccc2C(=O)N1C.CC(C)[C@@H]1C(=O)N[C@@H](c2ccc(F)cc2)C/C=C\C[C@@H](C)Oc2ccccc2C(=O)N1C,1.05 ± 0.032
14,O=C(C[C@H]1CC[C@H]2[C@@H](COC[C@@H](O)CN2Cc2ccc3c(c2)OCO3)O1)N1CCCCC1,0.97 ± 0.11
15,O=C(C[C@@H]1C[C@H]2c3cc(NS(=O)(=O)c4ccc(F)cc4)ccc3O[C@H]2[C@H](CO)O1)N1CCc2ccccc2C1,1 ± 0.11
16,CCC(=O)N1CC2(C1)[C@@H](c1ccc(-c3cccc(C)c3)cc1)[C@@H](CO)N2S(C)(=O)=O,1.057 ± 0.0069
17,CC(C)NC(=O)N(C)C[C@H]1Oc2ccc(NC(=O)c3ccncc3)cc2C(=O)N([C@@H](C)CO)C[C@@H]1C,0.935 ± 0.024
18,O=C(C[C@@H]1CC[C@H]2[C@@H](COC[C@H](O)CN2CCC(F)(F)F)O1)NCC1CC1,1.02 ± 0.034

row,SMILES,viability index
1,CCN(C[C@@H]1[C@@H](c2ccccc2)[C@H](CO)N1CC1CC1)C(=O)c1ccccn1,1.04 ± 0.032
2,COc1cccc(-c2ccccc2[C@@H]2[C@H](C#N)N(C(=O)Cc3ccccc3)[C@H]2CO)c1,0.996 ± 0.22
3,Cc1noc(C)c1NC(=O)Nc1ccc2c(c1)C(=O)N([C@@H](C)CO)C[C@H](C)[C@H](CN(C)S(=O)(=O)c1cccs1)OCCCC[C@H](C)O2,1.03 ± 0.045
4,COc1ccc(NC(=O)N2[C@@H]3CNC[C@H]2[C@H]3c2ccc(/C=C/c3ccccc3)cc2)cc1,1.05 ± 0.032
5,N#C[C@@H]1[C@@H](c2ccc(C3=CCCCC3)cc2)[C@@H](CO)N1S(=O)(=O)c1ccccc1,1.187 ± 0.0046
6,COCC(=O)N1C[C@@]2(C1)CN([C@H](CO)c1c2c2ccc(OC)cc2n1C)C(=O)NC1CCCC1,0.985 ± 0.084
7,O=C(c1ccccc1)N1CC(=O)N2[C@H](C1)[C@@H](c1ccc(-c3ccccc3)cc1)[C@@H]2CO,0.829 ± 0.051
8,CCS(=O)(=O)N1CCCCN2[C@H](CO)[C@H](c3ccc(C#Cc4ccccn4)cc3)[C@@H]2C1,1.01 ± 0.076
9,COc1cccc(S(=O)(=O)Nc2ccc3c(c2)C(=O)N(C)C[C@H](OC)[C@H](C)CN(Cc2ccccc2F)[C@@H](C)CO3)c1,1.01 and 1.07
10,O=C1N[C@H](Cc2ccccc2)COCc2cnnn2CC[C@@H]1Cc1ccc(-c2ccccc2)cc1,1.07 ± 0.051
11,N#C[C@@H]1[C@@H](c2ccc(-c3cccc(F)c3)cc2)[C@H](CO)N1C(=O)CN1CCOCC1,1.09 ± 0.021
12,CN1c2ccc(C3=CCCCC3)cc2[C@@H]2[C@@H](CCN2C(=O)C2CCOCC2)[C@H]1CO,1.05 ± 0.041
13,C[C@@H](NC(=O)C[C@H]1CC[C@@H]2[C@H](COC[C@H](O)CN2Cc2ccc(C(F)(F)F)cc2)O1)c1ccccc1,1.07 ± 0.039
14,COc1cccc(S(=O)(=O)N2CCCCN3[C@@H](CO)[C@H](c4ccc(C#CCC(C)C)cc4)[C@@H]3C2)c1,1.01 ± 0.053
15,COc1ccc(-c2ccc([C@H]3[C@@H](CO)N4C(=O)CN(C(=O)C5CC5)C[C@@H]34)cc2)cc1,1.01 ± 0.033
16,C[C@H](CO)N1C[C@H](C)[C@H](CN(C)C(=O)Nc2ccc3c(c2)OCO3)Oc2ncc(Br)cc2C1=O,0.978 ± 0.12
17,C[C@H]1CN([C@@H](C)CO)S(=O)(=O)c2ccc(C#CC3(O)CCCC3)cc2O[C@@H]1CN(C)C(=O)Nc1cccc(F)c1,0.933 ± 0.026
